The labels stand for the following.
T1: RBFOX1 RRM RbFoxmut (Fox-RRM*) (Homo sapiens, UniProt Q9NWB1 109-208, R118D;E147R;N151S;E152T)
T1 sequence: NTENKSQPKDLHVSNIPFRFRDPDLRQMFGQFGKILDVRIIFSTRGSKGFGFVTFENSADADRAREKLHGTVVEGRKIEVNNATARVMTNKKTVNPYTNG

B1: CCCGAGA (DNA:RNA)
RNA: GGGAGACCGGAAUUCAGAUUGUCCCCCGAGAUUAAAUCCCGUCGUAGCCACCA
DNA 1: CAATCTGAATTCCGGTCTCCC
DNA 2: TGGTGGCTACGACGGGATT
B2: UGAUGUA (DNA:RNA)
RNA: B1 RNA with C25U, C26G, C27A, G28U, A29G, G30U
DNA 1: CAATCTGAATTCCGGTCTCCC
DNA 2: TGGTGGCTACGACGGGATT
B3: CAUACUG (DNA:RNA)
RNA: B1 RNA with C26A, C27U, G28A, A29C, G30U, A31G
DNA 1: CAATCTGAATTCCGGTCTCCC
DNA 2: TGGTGGCTACGACGGGATT
B4: GCACUAG (DNA:RNA)
RNA: B1 RNA with C25G, C27A, G28C, A29U, G30A, A31G
DNA 1: CAATCTGAATTCCGGTCTCCC
DNA 2: TGGTGGCTACGACGGGATT
B5: UAUAUGG (DNA:RNA)
RNA: B1 RNA with C25U, C26A, C27U, G28A, A29U, A31G
DNA 1: CAATCTGAATTCCGGTCTCCC
DNA 2: TGGTGGCTACGACGGGATT
B6: CAUCAGG (DNA:RNA)
RNA: B1 RNA with C26A, C27U, G28C, A31G
DNA 1: CAATCTGAATTCCGGTCTCCC
DNA 2: TGGTGGCTACGACGGGATT
B7: UAGUCUC (DNA:RNA)
RNA: GGGAGACCGGAAUUCAGAUUGUCCUAGUCUCUUAAAUCCCGUCGUAGCCACCA
DNA 1: CAATCTGAATTCCGGTCTCCC
DNA 2: TGGTGGCTACGACGGGATT
B8: UGGCCAC (DNA:RNA)
RNA: B7 RNA with A26G, U28C, U30A
DNA 1: CAATCTGAATTCCGGTCTCCC
DNA 2: TGGTGGCTACGACGGGATT
B9: CUGGUGA (DNA:RNA)
RNA: B1 RNA with C26U, C27G, A29U
DNA 1: CAATCTGAATTCCGGTCTCCC
DNA 2: TGGTGGCTACGACGGGATT

Numbering of substitutions follows the chain as printed; changes in the protein carry UniProt numbers. Some of the results follow.

The target of the assay is T1, RBFOX1 RRM RbFoxmut (Fox-RRM*). Put plainly: EMSA; HiTS-Eq, 1 nM pool, 10 min; buffer printed only for the single-RNA assays: 10 mM Tris pH 7.5, 150 mM NaCl, 3.4 mM EDTA, 0.001% NP-40, 30 C. The settings on record: tags: His6 N-terminal (pET28a); label: 5' 32P. In outline: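 These values rest on relative association constants, computed from read-count changes of each RNA species versus the control reaction and normalised to the cognate motif. Reads came from free RNA recovered by 8% native PAGE after purified RbFox RRM (wild type or mutant) at increasing concentrations was equilibrated for 10 min in 50 µL with 1 nM of a 5′-radiolabelled pool with 7 randomized nucleotides and DNA-annealed flanks.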
A general note: Mobility shift assays separate free from complexed probe on a gel.
On to B1, for which the binding signal is 0.0631 KA relative to UGCAUGU. Next, B2: 0.195 KA relative to UGCAUGU. Next, B3: 0.0879 KA relative to UGCAUGU; B4: 0.0935 KA relative to UGCAUGU; B5: 0.0856 KA relative to UGCAUGU. With B6 the figure was 0.0914 KA relative to UGCAUGU; with B7, 0.0875 KA relative to UGCAUGU; with B8, 0.0849 KA relative to UGCAUGU. For the molecule B9, the binding signal was 0.0924 KA relative to UGCAUGU.

These data come from article PMC9911399, “Two distinct binding modes provide the RNA-binding protein RbFox with extraordinary sequence specificity”.
